In publication PMC4336329 (PLoS ONE, 2015):
About 14,000 (4.5%) of roughly 310,000 compounds showed an effect of 50% or more. The effect is printed as a negative number. The list shows a part of the results.

Each molecule was assayed against human ether-à-go-go-related gene (hERG) potassium channel (human, UniProt Q12809) (assay: primary screen, population patch clamp on CHO cells stably expressing hERG).
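Further: peak tail current of the secondary pulse compared with the same well before compound.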

Sequence of human ether-à-go-go-related gene (hERG) potassium channel (Q12809 whole entry, looked up): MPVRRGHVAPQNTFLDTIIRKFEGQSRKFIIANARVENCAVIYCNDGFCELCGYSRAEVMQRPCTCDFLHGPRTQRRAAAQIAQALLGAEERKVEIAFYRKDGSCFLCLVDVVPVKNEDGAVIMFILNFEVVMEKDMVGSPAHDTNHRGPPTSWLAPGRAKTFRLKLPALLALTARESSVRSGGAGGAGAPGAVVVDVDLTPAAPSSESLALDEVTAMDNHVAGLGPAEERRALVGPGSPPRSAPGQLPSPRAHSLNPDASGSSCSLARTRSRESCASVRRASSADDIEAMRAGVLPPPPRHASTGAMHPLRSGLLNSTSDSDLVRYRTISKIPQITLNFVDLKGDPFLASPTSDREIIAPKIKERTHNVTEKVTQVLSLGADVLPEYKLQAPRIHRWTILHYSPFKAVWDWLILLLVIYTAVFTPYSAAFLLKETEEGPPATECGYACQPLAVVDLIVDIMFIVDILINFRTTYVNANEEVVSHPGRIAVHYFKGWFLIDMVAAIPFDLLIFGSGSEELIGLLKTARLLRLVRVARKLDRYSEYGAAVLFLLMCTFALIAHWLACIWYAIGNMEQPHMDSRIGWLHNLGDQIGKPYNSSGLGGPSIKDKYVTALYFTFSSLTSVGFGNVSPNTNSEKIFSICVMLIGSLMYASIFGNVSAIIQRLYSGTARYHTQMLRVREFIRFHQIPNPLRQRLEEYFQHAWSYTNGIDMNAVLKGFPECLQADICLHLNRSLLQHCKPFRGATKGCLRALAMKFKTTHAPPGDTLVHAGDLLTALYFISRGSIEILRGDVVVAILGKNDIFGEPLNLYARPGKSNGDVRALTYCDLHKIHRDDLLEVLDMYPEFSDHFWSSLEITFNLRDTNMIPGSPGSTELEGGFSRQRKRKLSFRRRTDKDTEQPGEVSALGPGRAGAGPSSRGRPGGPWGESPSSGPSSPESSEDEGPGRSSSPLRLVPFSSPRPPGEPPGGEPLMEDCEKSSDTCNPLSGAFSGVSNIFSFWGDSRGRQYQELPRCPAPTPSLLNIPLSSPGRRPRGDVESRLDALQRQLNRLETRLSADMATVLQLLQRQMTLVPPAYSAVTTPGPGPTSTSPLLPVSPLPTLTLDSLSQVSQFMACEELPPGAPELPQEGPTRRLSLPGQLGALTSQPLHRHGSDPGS

Structure (SMILES) | hERG current change (%, negative = inhibition) at 10uM
Cc1ccc(C(=O)Nc2c3c(nn2C(C)(C)C)CS(=O)(=O)C3)cc1C | -6.24%
COc1ccc(C(=O)NCCN2C(=O)S/C(=C\c3cccnc3)C2=O)cc1[N+](=O)[O-] | -63.8%
CCC1OC(=O)C(C)C(OC2C[C@@](C)(OC)C(O)C(C)O2)C(C)C(O[C@@H]2OC(C)CC(N(C)C)C2O)[C@](C)(O)CC(C)C(=NOCOCCOC)C(C)C(O)[C@]1(C)O (stereo partly shown) | 18.8%
CC(C)Cn1c(=O)c2ccccc2n2c(CCC(=O)O)nnc12 | 21.5%
O=C(N/N=C/c1ccc([N+](=O)[O-])cc1)C(=O)N1CCCC1 | 13.5%
COCC1CCN(C(=O)c2cc(COc3cncc(Cl)c3)on2)C1 (stereo not shown) | 5.09%
CCOc1ccc(NC(=O)CSc2nc3[nH]ncc3c(=O)n2-c2ccccc2OC)cc1 | 3.8%
CN(C)c1nnnn1-c1ccc(OC(F)(F)F)cc1 | -9.73%
COc1ccc(-n2nnnc2S(=O)(=O)CC(=O)N2CCCCC2)cc1 | -15.2%
CCC(=NCc1cccnc1)c1c(O)n(C2CCCCC2)c(=O)[nH]c1=O | -44.9%
O=C(Nc1ccccc1)c1ccc(NCCN2CCOCC2)c(S(=O)(=O)N2CCOCC2)c1 | -32.8%
COC(=O)C1=C(C)OC(N)=C(C#N)C1c1ccccc1F (stereo not shown) | -8.34%
CCOCC(=O)Nc1cccc(-c2nc3cccnc3s2)c1C | 1.76%
Cc1cc(C(=O)N/N=C/C=C/c2ccccc2[N+](=O)[O-])c(C)o1 | 6.36%
COC(=O)C1(CC2CC(c3ccc(Cl)cc3)=NO2)CCN(C(=O)OC(C)(C)C)CC1 (stereo not shown) | -10.3%
O=C1C(=C2SCCCS2)CC/C1=C\c1ccc(F)cc1 | 15%
Cc1cccnc1NC(=O)c1cccc(S(=O)(=O)N2CCCc3ccccc32)c1 | -24.3%
Cc1ccc(CN2CCNC(=O)C2CC(=O)NCc2cc(C)n(C)n2)cc1 (stereo not shown) | 5.76%
COCc1nnc(NC(=O)c2ccc(Cl)cc2[N+](=O)[O-])s1 | 15.5%
O=C(CNS(=O)(=O)c1c(Cl)cccc1Cl)OCC(=O)N1CCN(c2ccccc2)CC1 | -29.5%
CCOc1ccc(CC(=N)C2=C(O)CC(C)(C)CC2=O)cc1OCC | -7.44%
O=C(C1CCN(S(=O)(=O)c2ccccc2)CC1)N1CCC2(CC1)OCCO2 | 13.2%

Structure (SMILES) | hERG current change (%, negative = inhibition) at 10uM
Cc1nn(C)c(Oc2ccccc2)c1CCNC(=O)C(C)(C)C | 9.33%
COc1ccc(OC)c(S(=O)(=O)NC(N)=NCCc2ccccc2OC)c1 | 9.89%
COc1ccccc1-c1nc(NC(C)=O)n[nH]1 | 16.4%
O=C(c1[nH]nc2c1CCc1ccccc1-2)N1CCN(Cc2ccc3c(c2)OCO3)CC1 | -26.9%
COCCN(C(=O)CCc1nnc(Cc2c[nH]c3ccccc23)o1)C(C)C | 10.5%
O=C(OCc1cncs1)c1ccccc1Cl | 6.6%
Fc1ccccc1-c1n[nH]c(=S)n1CC1CCCO1 (stereo not shown) | 17.5%
COc1ccc(Br)cc1C(=O)Nc1ccc(C(=O)O)cc1 | 11.7%
COc1cc(NC(=O)c2cc([N+](=O)[O-])ccc2N2CCOCC2)ccc1NC(=O)c1ccco1 | -6.66%
Cc1cc2oc(=O)cc(-c3cc4ccccc4o3)c2cc1OC(=O)N(C)C | 12.7%
c1ccc(-c2csc3ncnc(N4CCN(Cc5ccc6c(c5)OCO6)CC4)c23)cc1 | -57.6%
Fc1ccc(CSc2nc3ccccc3[nH]2)cc1 | -20.9%
CCC(Sc1nc(-c2ccccc2)cc(=O)[nH]1)C(=O)O (stereo not shown) | 2.59%
CN(C1CCS(=O)(=O)C1)S(=O)(=O)c1ccccc1 (stereo not shown) | 12.8%
CCOc1ccccc1N1CC(O)=C(c2nc3ccccc3s2)C1=N | -8.81%
COc1ccccc1NC(=O)CSc1nc2ccccc2c(=O)n1CC1CCCO1 (stereo not shown) | 2.49%
FC(F)(F)c1ccc(N2CCN(c3cc(-c4ccccc4)nc4ncnn34)CC2)nc1 | -65.1%
O=C(O)c1ccccc1-n1cccc1C(=O)O | 15.4%
Cc1[nH]nc(-c2ccc(O)cc2O)c1Oc1ccccc1 | -29.9%
Cc1ccc(Nc2ncnc(-n3cccc3)n2)cc1Cl | 8.65%
Cc1ccc(CN2CC(C(=O)N3CC(C)CC(C)C3)CC2=O)cc1 (stereo not shown) | -6.13%
